Results from PMC4336329 (PLoS ONE, 2015).
Out of some 310,000 compounds screened, about 14,000 (4.5%) showed an effect of 50% or more. Effects have a minus sign here. This is one part of the list.

What follows are compounds tested against human ether-à-go-go-related gene (hERG) potassium channel (human, UniProt Q12809) (assay: primary screen, population patch clamp on CHO cells stably expressing hERG).
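Further: peak tail current of the secondary pulse compared with the same well before compound.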

human ether-à-go-go-related gene (hERG) potassium channel, sequence (Q12809 whole entry, looked up): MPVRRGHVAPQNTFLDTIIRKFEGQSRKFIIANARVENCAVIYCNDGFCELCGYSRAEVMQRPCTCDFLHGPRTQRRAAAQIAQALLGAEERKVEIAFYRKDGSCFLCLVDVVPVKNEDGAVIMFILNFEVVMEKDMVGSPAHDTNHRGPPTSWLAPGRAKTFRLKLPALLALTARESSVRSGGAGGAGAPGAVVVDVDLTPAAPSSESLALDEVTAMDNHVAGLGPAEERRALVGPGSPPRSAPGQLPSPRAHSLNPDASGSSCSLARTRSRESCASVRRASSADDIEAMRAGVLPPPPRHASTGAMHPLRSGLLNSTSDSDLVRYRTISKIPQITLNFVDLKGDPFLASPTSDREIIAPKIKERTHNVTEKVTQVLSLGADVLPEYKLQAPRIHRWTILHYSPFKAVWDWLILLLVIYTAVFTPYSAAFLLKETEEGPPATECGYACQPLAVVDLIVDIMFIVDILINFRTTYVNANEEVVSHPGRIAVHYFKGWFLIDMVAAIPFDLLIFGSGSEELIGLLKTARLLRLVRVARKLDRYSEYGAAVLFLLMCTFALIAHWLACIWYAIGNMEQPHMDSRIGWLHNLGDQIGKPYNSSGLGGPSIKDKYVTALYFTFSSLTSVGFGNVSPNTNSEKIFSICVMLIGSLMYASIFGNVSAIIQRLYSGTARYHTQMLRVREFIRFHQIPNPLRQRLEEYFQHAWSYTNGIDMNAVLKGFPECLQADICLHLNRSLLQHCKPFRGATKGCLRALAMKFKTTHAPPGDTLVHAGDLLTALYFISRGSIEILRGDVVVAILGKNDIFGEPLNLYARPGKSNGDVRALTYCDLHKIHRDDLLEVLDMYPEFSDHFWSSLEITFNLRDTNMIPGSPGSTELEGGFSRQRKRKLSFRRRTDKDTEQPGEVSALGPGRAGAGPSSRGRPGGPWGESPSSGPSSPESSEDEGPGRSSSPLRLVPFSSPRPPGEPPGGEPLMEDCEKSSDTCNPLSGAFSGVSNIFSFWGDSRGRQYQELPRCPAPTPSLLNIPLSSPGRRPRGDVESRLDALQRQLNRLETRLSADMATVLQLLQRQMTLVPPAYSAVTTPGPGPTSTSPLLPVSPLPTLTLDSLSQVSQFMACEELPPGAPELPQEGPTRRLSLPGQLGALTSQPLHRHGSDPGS

SMILES	hERG current change (%, negative = inhibition) at 10uM
CCCc1cc(C(=O)Nc2cccc(C(C)=O)c2)no1	4.05%
CN(CC(=O)N1CCN(c2ccccn2)CC1)S(=O)(=O)c1ccc(Br)cc1	-54.8%
CC(=O)c1ccc(S(=O)(=O)Nc2ccc(C(=O)NCC(c3ccccc3)N(C)C)cc2)cc1 (centres unmarked)	8.62%
O=C(Nc1ccccc1N1CCCC1)C1CCN(C(=O)c2ccc(Cl)cc2)CC1	-59.8%
O=C(/C=C/c1ccc(Cl)cc1)N(Cc1ccccc1)C1CCS(=O)(=O)C1 (centres unmarked)	-75%
COCCN(C(=O)COC(=O)CCc1ccc(OC)cc1)c1c(N)n(Cc2ccccc2)c(=O)[nH]c1=O	27.6%
CCCCNC(=O)/C(C#N)=C/c1ccc(F)cc1F	17.1%
O=C(CCCC(=O)OCC(=O)c1cccs1)Nc1ccc(F)cc1	-30.9%
CC(C)CC1C(C#N)=C(N)OC2=C1C(=O)CC(c1ccccc1)C2 (centres unmarked)	-9.18%
O=C(Nc1ccc(C(=O)N2CCCc3ccccc32)cc1)c1cccs1	12.4%
O=C(CN1CCN(C(=O)C2CCCO2)CC1)Nc1ccc(Br)cc1 (centres unmarked)	-70%
CC1CCC(NC(=O)C2CCC(CNS(=O)(=O)c3cccc4nsnc34)CC2)CC1 (centres unmarked)	1.51%
COC(=O)c1cc2n(n1)CCN(Cc1ccc(OC)cc1)C2=O	-0.73%
CCOC(=O)c1ccc(NC(=O)CCc2nc(-c3ccc(Cl)cc3)no2)cc1	8.36%
CCCC(O)(CCN1CCOCC1)c1ccc(Br)cc1.Cl (centres unmarked)	-20.7%
O=c1cc(CO)oc(C(Nc2ccccn2)c2cccc(F)c2)c1O (centres unmarked)	5.36%
CN(C)c1ccc(C2C3C(=O)N(c4ccc(C(=O)O)cc4)C(=O)C3ON2c2ccccc2)cc1 (centres unmarked)	7.23%
CCOC(=O)CSc1nc(N)c2c3c(sc2n1)CCCC3	-0.576%
CC(OC(=O)Cc1c[nH]c2ccccc12)C(=O)NC1CCCCC1C (centres unmarked)	-5.09%
Cc1occc1-c1nnc(SCC(=O)c2ccc3c(c2)OCCO3)n1CC1CCCO1 (centres unmarked)	-12.5%
CCC(=NCCC1=CCCCC1)c1c(O)[nH]c(=O)[nH]c1=O	-0.506%
Cc1cc(Cl)ccc1OCc1nc(-c2ccncc2)no1	-5.1%

SMILES	hERG current change (%, negative = inhibition) at 10uM
O=C(O)C(C/C(=N/O)c1ccc(Br)cc1)P(=O)(c1ccccc1)c1ccccc1 (centres unmarked)	12%
O=C(O)CC(NC(=O)C1c2ccccc2Oc2ccccc21)c1ccc(Cl)cc1 (centres unmarked)	9.04%
COc1ccc(S(=O)(=O)N2CCN(CCOc3ccc(Br)cc3)CC2)cc1OC	-12.8%
O=C(CN1C(=O)C2CC=CCC2C1=O)NCc1cccs1 (centres unmarked)	5.19%
COc1ccc(CCNCC(O)COc2cccc(C(C)=O)c2)cc1OC.O=C(O)C(=O)O (centres unmarked)	-0.028%
O=C(CN1CCN(Cc2ccccc2F)C1=O)NCC1CCCO1 (centres unmarked)	2.9%
N#Cc1c(-c2ccccc2)cc(-c2ccccc2)nc1SCC(=O)O	34.7%
COc1ccc(NCc2nnc(SCC(=O)N3CCCc4ccccc43)o2)cc1	-7.78%
C/C(=N/Nc1ccc(Cl)cc1)c1cnnc(-c2ccccc2)n1	29.9%
Cc1ccc(-c2nc(CS(=O)CC(=O)NCc3ccc(Cl)cc3)c(C)o2)cc1 (centres unmarked)	0.973%
Cc1noc(C)c1C(=O)Nc1ccc(F)cc1	33.3%
COC(=O)c1cc(NC(=O)Nc2ccccc2)ccc1Cl	8.32%
CCOC(=O)c1ccccc1NC(=O)c1cc2ccccc2o1	20.9%
O=C(NCc1cccnc1)c1ccccc1NC(=O)c1c(F)cccc1F	4.58%
O=C(N/N=C/c1c[nH]c2ccccc12)c1ccccc1O	6.71%
Br.O=C(Cn1c(NCCO)nc2ccccc21)c1ccc(F)cc1	6.28%
Cc1noc(C)c1COC(=O)c1cccnc1Cl	3.21%
CN(CC(=O)NCCc1ccc(Cl)cc1)S(=O)(=O)c1ccc2c(c1)c(=O)n(C)c(=O)n2C	-23.1%
CCOc1ccccc1C(=O)NCC(=O)NNC(=O)CN(C)S(=O)(=O)c1ccc(Cl)cc1	-2.59%
CCCOc1ccc(C(=O)CCC(=O)Nc2ccc(N3CCN(C)CC3)cc2)cc1	-48.2%
CC(=O)c1cnc(N2CCCCC2)nc1C	-11.6%
CCC(CC)C(=O)Nc1nnc(S(=O)(=O)Nc2ccc(OC)cc2)s1	9.66%
